Patent publication US11457629B2, “Heteroarylphenylaminoquinolines and analogues” (Bayer Aktiengesellschaft, priority 2017, dated 2022)
Marks after values point to notes of the source that are not given here.

Procedure: In the following, measurement of Log P values was performed according to EEC directive 79/831 Annex V.A8 by HPLC (High Performance Liquid Chromatography) on reversed phase columns with the following methods: • ^[a]
If more than one Log P value is available within the same method, all the values are given and separated by “+”.
Calibration was done with straight-chain alkan2-ones (with 3 to 16 carbon atoms) with known Log P values (measurement of Log P values using retention times with linear interpolation between successive alkanones). Lambda-max-values were determined using UV-spectra from 200 nm to 400 nm and the peak values of the chromatographic signals.

CCn1nccc1-c1cc(F)ccc1Cc1cc2ccc(F)c(F)c2nc1C [Example I-333]
Log P: 3.46 ^[a]

Cc1nc2c(F)c(F)ccc2cc1Nc1ccccc1-c1ccnn1CCc1ccccc1 [Example I-146]
logP: 4.27 ^[a]

Cc1nc2ccccc2nc1Nc1cccc(F)c1-c1ccnn1C(C)C [Example I-103]
logP: 3.97 ^[a]

CC1=NOC(C)(c2ccccc2Nc2cnc3ccccc3c2)C1 (stereo not shown) [Example I-019]
logP: 2.96 ^[b]

Cc1nc2ccccc2cc1Nc1ccccc1-c1ccn(C(C)(C)C)n1 [Example I-006]
logP: 3.01 ^[a]

CCn1nccc1-c1cc(F)ccc1Nc1cnc2ccnn2c1 [Example I-142]
logP: 2.17 ^[a]

Cn1nccc1-c1ccccc1Cc1cnc2ccccc2c1 [Example I-065]
logP: 1.77 ^[a]

Fc1cccc2cc(Nc3ccccc3-c3ccnn3CCc3ccccc3)cnc12 [Example I-184]
logP: 3.81 ^[a]

Cc1nc2c(F)c(F)ccc2cc1Nc1ccc(F)cc1-c1c(Cl)cnn1C [Example I-322]
Log P: 3.50 ^[a]

Cc1nc2c(F)c(F)ccc2cc1Nc1ccc(F)cc1-c1ccnn1Cc1ccccc1 [Example I-326]
Log P: 3.99 ^[a]

CC(C)n1nccc1-c1ccccc1Cc1cnc2ccccc2c1 [Example I-071]
logP: 2.41 ^[a]

c1ccc(-c2ccnn2C2CCCCO2)c(Cc2cnc3ccccc3c2)c1 (racemic) [Example I-116]
logP: 2.37 ^[a]

Cc1cccc2cc(Nc3ccc(F)c(F)c3-c3ccnn3C)cnc12 [Example I-240]
logP: 2.87 ^[a]

Cc1cc(C)c(Nc2cnc3ccccc3c2C)c(-c2ccnn2C)c1F [Example I-196]
logP: 1.75 ^[a]

Cn1nccc1-c1c(Nc2cnc3c(C(F)(F)F)cccc3c2)ccc(F)c1F [Example I-241]
logP: 3.54 ^[a]

Cn1nccc1-c1cc(OC(F)(F)F)ccc1Nc1cnc2c(F)c(F)ccc2c1 [Example I-255]
Log P: 3.62 ^[a]

Cc1cnn(C)c1-c1ccccc1Cc1cc2ccc(F)c(F)c2nc1C [Example I-292]
Log P: 3.21 ^[a]

Cc1nc2c(F)c(F)ccc2nc1Nc1ccc(F)c(F)c1-c1ccnn1C [Example I-232]
logP: 3.46 ^[a]

Cn1nccc1-c1cc(OC(F)(F)F)ccc1Nc1cnc2c(F)cccc2c1 [Example I-253]
Log P: 3.37 ^[a]

Cc1nc2c(F)c(F)ccc2cc1Cc1ccccc1-c1ccnn1CC(C)C [Example I-289]
Log P: 4.11 ^[a]

CCn1nccc1-c1ccccc1Cc1nc2ccc(F)c(F)c2nc1C [Example I-339]
Log P: 3.31 ^[a]

Cc1cc(-c2ccccc2Cc2cc3ccc(F)c(F)c3nc2C)n(C)n1 [Example I-320]
Log P: 3.19 ^[a]

Fc1cccc(Nc2cnc3c(F)c(F)ccc3n2)c1-c1ccnn1CCc1ccccc1 [Example I-118]
logP: 4.41 ^[a]

Cc1nc2c(F)c(F)ccc2cc1Cc1cccc(F)c1-c1ccnn1C [Example I-332]
Log P: 3.06 ^[a]

Cn1nccc1-c1ccccc1Cc1cnc2ccccc2n1 [Example I-357]
Log P: 2.34 ^[a]

CCn1nccc1-c1c(Cl)cccc1Cc1cc2ccc(F)c(F)c2nc1C [Example I-334]
Log P: 3.65 ^[a]

Cc1ccc(Nc2nc3ccc(F)c(F)c3nc2C)c(-c2ccnn2C)c1F [Example I-130]
logP: 3.37 ^[a]

Cc1nc2c(F)c(F)ccc2cc1Nc1cccc(F)c1-c1ccn(C(C)C)n1 [Example I-044]
logP: 5.14 ^[a]

Cn1nccc1-c1ccccc1Cc1cnc2c(F)cccc2c1 [Example I-353]
Log P: 2.57 ^[a]

Cn1nccc1-c1cc(Cl)ccc1Nc1cnc2ccnn2c1 [Example I-211]
logP: 2.34 ^[a]

CCn1nccc1-c1cc(F)ccc1Nc1cnc2c(F)c(F)ccc2c1 [Example I-163]
logP: 3.17 ^[a]

Fc1ccc2cc(Nc3ccccc3-c3ccnn3CCc3ccccc3)cnc2c1F [Example I-154]
logP: 4.03 ^[a]

CCC1=NOC(c2ccccc2Nc2cc3ccccc3nc2C)C1 (stereo not shown) [Example I-016]
logP: 3.11 ^[b]

CCn1nccc1-c1ccccc1Nc1cnc2ccccc2c1Cl [Example I-164]
logP: 3.27 ^[a]

Cc1nc2ccccc2cc1Nc1ccccc1C1=NOC(C)(C)C1 [Example I-040]
logP: 2.50 ^[a]

Cc1nc2c(F)c(F)ccc2nc1Nc1ccc(F)cc1-c1ccnn1CCc1ccccc1 [Example I-173]
logP: 4.49 ^[a]

Cc1nc2c(F)c(F)ccc2cc1Cc1ccc(F)cc1-c1ccnn1C [Example I-335]
Log P: 3.15 ^[a]

CC(C)n1nccc1-c1c(F)cccc1Nc1cnc2ccccc2c1 [Example I-031]
logP: 2.92 ^[a]

Cc1nc2c(F)c(F)ccc2cc1Nc1ccc(F)cc1-c1ccnn1CC(F)(F)F [Example I-281]
Log P: 4.49 ^[a]

c1ccc(Cn2nccc2-c2ccccc2Cc2cnc3ccccc3c2)cc1 [Example I-125]
logP: 2.75 ^[a]

CCn1nccc1-c1ccccc1Nc1nc2ccc(F)c(F)c2nc1C [Example I-191]
logP: 3.42 ^[a]

Cc1cnn(C)c1-c1c(F)cccc1Nc1cnc2c(F)cccc2c1C [Example I-208]
logP: 3.06 ^[a]

CC(C)c1ccnn1-c1c(F)cccc1Nc1cnc2ccccc2c1 [Example I-076]
logP: 3.15 ^[a]

Cc1nc2c(F)c(F)ccc2nc1Nc1ccc(Cl)cc1-c1ccnn1C [Example I-214]
logP: 3.69 ^[a]

CCn1ncc(F)c1-c1c(F)cccc1Nc1nc2ccccc2nc1C [Example I-312]
Log P: 3.29 ^[a]

CCn1ncc(F)c1-c1c(F)c(F)cc(F)c1Nc1nc2ccccc2nc1C [Example I-314]
Log P: 3.15 ^[a]

Cc1nc2c(F)c(F)ccc2nc1Nc1ccccc1-c1ccnn1C [Example I-180]
logP: 3.00 ^[a]

CC1=NOC(c2ccccc2Nc2cc3ccc(F)c(F)c3nc2C)C1 (stereo not shown) [Example I-013]
logP: 3.15 ^[b]

CCn1nccc1-c1ccccc1Nc1cnc2c(F)c(F)ccc2n1 [Example I-175]
logP: 3.21 ^[a]

Cc1ccc(Nc2c(C)nc3c(F)c(F)ccc3c2C)c(-c2c(Br)cnn2C)c1F [Example I-112]
logP: 4.25 ^[a]

Cc1ccc(F)c(-c2c(Br)cnn2C)c1Nc1cc2ccc(F)c(F)c2nc1C [Example I-111]
logP: 3.59 ^[a]

Cc1nc2c(F)c(F)ccc2cc1Nc1ccc(F)cc1-c1cc(C(F)(F)F)nn1C [Example I-300]
Log P: 3.83 ^[a]

Cc1ccc(Nc2cnc3c(F)cccc3c2)c(-c2ccnn2C)c1F [Example I-206]
logP: 2.99 ^[a]

CCn1nccc1-c1c(F)ccc(F)c1Nc1cnc2ccccc2c1C [Example I-262]
Log P: 1.88 ^[a]

CCn1nccc1-c1c(F)cccc1Cc1cc2ccc(F)c(F)c2nc1C [Example I-331]
Log P: 3.35 ^[a]

CC(C)(C)n1ccc(-c2ccccc2Nc2cnc3ccccc3c2)n1 [Example I-005]
logP: 4.27 ^[a]

CC(C)(C)n1nccc1-c1ccccc1Cc1cnc2ccccc2c1 [Example I-204]
logP: 2.77 ^[a]

Cc1c(Nc2ccc(F)c(F)c2-c2ccnn2C)cnc2ccccc12 [Example I-117]
logP: 1.95 ^[a]

Cc1c(Nc2ccc(OC(F)(F)F)cc2-c2ccnn2C)cnc2ccccc12 [Example I-257]
Log P: 2.68 ^[a]

Cc1nc(-c2ccccc2Nc2cnc3ccccc3c2)sc1C [Example I-054]
logP: 4.77 ^[a]

CCn1nccc1-c1ccccc1Nc1cnc2ccnn2c1 [Example I-139]
logP: 2.10 ^[a]

Cc1nc2c(F)c(F)ccc2cc1Nc1ccccc1-c1ccnn1C(C)(C)C [Example I-053]
logP: 4.39 ^[a]

CC1=NOC(c2c(F)cccc2Nc2cc3ccc(F)c(F)c3nc2C)C1 (racemic) [Example I-036]
logP: 3.42 ^[b]

Cc1nc2c(F)c(F)ccc2cc1Nc1ccccc1-c1ccnn1C [Example I-148]
logP: 2.92 ^[a]

CCn1nccc1-c1cc(F)ccc1Nc1cnc2c(F)c(F)ccc2n1 [Example I-135]
logP: 3.27 ^[a]

CC(C)(C)n1ccc(-c2c(F)cccc2Nc2cnc3ccccc3c2)n1 [Example I-032]
logP: 4.57 ^[a]

Cc1nc2ccccc2nc1Nc1ccc(OC(F)(F)F)cc1-c1ccnn1C [Example I-254]
Log P: 3.63 ^[a]

Cn1nccc1-c1cc(Cl)ccc1Nc1cnc2c(F)c(F)ccc2c1 [Example I-228]
logP: 3.37 ^[a]

Cn1nccc1-c1c(Nc2cnc3c(F)c(F)ccc3c2F)ccc(F)c1F [Example I-273]
Log P: 3.11 ^[a]

Cc1nc2c(F)c(F)ccc2cc1Nc1ccc(F)cc1-c1ccnn1C1CC1 [Example I-296]
Log P: 3.41 ^[a]

Cn1nccc1-c1cc(OC(F)(F)F)ccc1Nc1cnc2ccccc2c1Cl [Example I-256]
Log P: 3.83 ^[a]

Cc1cc(C)c(Nc2cc3ccc(F)c(F)c3nc2C)c(-c2ccnn2C)c1F [Example I-110]
logP: 3.50 ^[a]

Clc1cccc2cc(Cc3ccccc3-c3ccnn3Cc3ccccc3)cnc12 [Example I-338]
Log P: 4.08 ^[a]

CC(C)n1nccc1-c1ccccc1Cc1cnc2c(F)cccc2c1 [Example I-352]
Log P: 3.19 ^[a]

CC(C)c1ccn(-c2ccccc2Cc2cnc3ccccc3c2)n1 [Example I-203]
logP: 2.43 ^[a]

Cc1nc2c(F)c(F)ccc2cc1Nc1ccccc1-c1ccnn1C(C)C [Example I-129]
logP: 3.58 ^[a]

Cc1nc2c(F)c(F)ccc2cc1Cc1ccccc1-c1ccnn1C(C)(C)C [Example I-307]
Log P: 4.20 ^[a]

CCn1nccc1-c1c(F)cccc1Nc1c[nH]c2c(F)c(F)ccc2c1=O [Example I-266]
Log P: 2.37 ^[a]

Cn1nccc1-c1cc(F)ccc1Nc1cnc2c(F)cccc2c1 [Example I-143]
logP: 2.64 ^[a]

Cc1nc2ccccc2cc1Cc1ccccc1-c1ccnn1C [Example I-348]
Log P: 1.36 ^[a]

Cc1c(Nc2cccc(F)c2-c2ccnn2C)cnc2ccccc12 [Example I-086]
logP: 2.04 ^[a]

Cc1ccc(Nc2nc3ccccc3nc2C)c(-c2ccnn2C)c1F [Example I-178]
logP: 3.09 ^[a]
